According to ChEMBL document CHEMBL4888484, “Replenishing the malaria drug discovery pipeline: Screening and hit evaluation of the MMV Hit Generation Library 1 (HGL1) against asexual blood stage Plasmodium falciparum ,using a nano luciferase reporter read-out” (2022):
Among all 150,000 compounds or so, about 540 (0.36%) showed an effect of 50% or more. The list shows a part of the results.

system: Plasmodium falciparum; assay: Primary screen in NF54 nanoGlo assay, in single point, at 2uM, 72h; a lower Z score goes with more inhibition; format: functional, Erythrocyte; conditions: timepoint 72 hour

Compound	% Inhibition [%]	Z score
Nc1cc(N2CCN(Cc3ccc4c(c3)CCO4)C[C@H](O)C2)ncn1	12	-1.6
Cc1ccc2[nH]cc(CCC(=O)NCC(=O)Nc3cccnc3)c2c1	-15	1.65
CC(C)=CCO[C@H]1COCC[C@@H]1NC(=O)c1c[nH]c(=O)[nH]1	2	-0.46
C[C@H]1CCCCN1C1CN(Cc2ccc(OC(F)F)cc2)C1	-2	0.47
O=C(NCc1cccnc1Oc1ccc(F)cc1F)c1cccnn1	0	-0.07
O=C(Nc1cnnn1-c1ccccc1)N1CCn2nc(C3CC3)cc2C1	-7	1.3
O=C1C[C@H](N2CCC3(CC2)OCCO3)C(=O)N1c1cccc(F)c1	1	-0.18
CCOC(Cn1ncc(C(=O)NCCc2ccccc2C)c1N)OCC	-6	0.85
C[C@H](NCc1ccccc1CN1CCOCC1)c1cc(F)cc(F)c1	0	0.02
COc1ccc(S(=O)(=O)CCC#N)cc1F	-13	2.37
CCOC(=O)CCS(=O)(=O)NC1CCCCC1	-6	0.95
CN1CCO[C@@H](CN(CCOc2cccc(C#N)c2)CCOc2cccc(C#N)c2)C1	-5	0.46
Fc1ccc(-c2cn(CCN3CCOCC3)nn2)cc1Cl	-24	3.11
CC(=O)N1CC2(CCN(Cc3ccc(CC(C)C)cc3)CC2)C[C@H]1C(=O)O	-18	2.34
CN1CCN(c2snnc2CO)CC1	-6	0.71
CCc1cc(CNC(=O)Cc2c[nH]c(=O)n(C)c2=O)on1	0	-0.05
COc1ccc(N2Cc3ccccc3OCC2=O)cc1	-19	2.13
CS(=O)(=O)N1CCOC[C@H](Oc2cccnc2)C1	-3	0.36
CC(C)n1nc(C(=O)N2c3ccccc3C[C@@H]2C)ccc1=O	-17	2.22
O=C(N[C@H]1C[C@H]2C(=O)N[C@H](CO)C(=O)N2C1)c1cccnc1Oc1ccc(Cl)cc1	-10	1.22
COc1cc(NC(=O)CCc2c(C)nn(-c3ccc(N4CCCC4)nn3)c2C)cc(OC)c1OC	1	-0.21
O=S(=O)(c1cc(F)cc(F)c1)N1CCC(n2cnnc2C2CC2)CC1	-2	0.36

Compound	% Inhibition [%]	Z score
O=C(NCCc1ccc(C2CCCCC2)cc1)C1CCC(C(=O)O)NC1 (stereo unspecified)	-11	1.09
COCCN1C[C@@H](Cc2nccc(N(C)C)n2)CC1=O	-5	1.01
COCCN1CCC[C@H](c2[nH]ccc2C(=O)NCc2ccco2)C1	-9	1.04
Fc1ccc(-c2n[nH]cc2CN2CCC(Nc3ncccn3)CC2)cc1	-1	0.1
O=C1C[C@H](C(=O)Nc2ccccc2NCc2ccc(Cl)cc2)CN1	-6	0.5
CC(=O)c1cccc(NC(=O)CNC2(c3nccs3)CCCC2)c1	-2	0.17
OC[C@H]1C[C@@H](CN2CCOCC2)CN(Cc2ccc(-c3cc[nH]n3)s2)C1	-9	1.39
Cc1cc(OCc2cc(C(=O)N3CCN(C)[C@@H](C)C3)no2)cc(C)c1Cl	15	-1.93
Cc1cc(C(=O)N2CC(C(=O)NC[C@H]3CCCO3)C2)no1	-9	1.6
Cc1nc(-n2nc(C)c(Cc3ccc(Cl)cc3)c2C)sc1C(=O)N1CCOCC1	-12	1.07
COc1ccc(-c2nc(NCc3ccc4c(c3)OCCO4)[nH]c(=O)c2C#N)cc1	-3	0.65
CC(C)c1cc(CN(C)c2nnc(C3CCC3)o2)no1	-8	1.09
O=C1NC2=Nc3ccccc3NC(c3ccccc3)=C2[C@H](c2cccc3ncccc23)N1	27	-3.37
CCc1ccc2c(c1)C1(NC(Cc3c[nH]c4ccccc34)C3C(=O)N(c4ccc5c(c4)OCCO5)C(=O)C31)C(=O)N2 (stereo unspecified)	-4	0.53
O=C(c1ccc2c(c1)n(CC1CC1)c(=O)n2C1CCCCC1)N1CCOCC1	0	0.02
C[C@@](NC(=O)NCC(=O)N1CCN(Cc2ccccc2)CC1)(C(=O)N1CCN(Cc2ccccc2)CC1)C1CC1	-2	0.18
CCc1nnsc1C(=O)NCc1noc(-c2ccccc2)n1	-9	1.36
CCc1noc(C)c1-c1noc(-c2nc3nccc(C)n3n2)n1	1	-0.2
O=C1COc2cccc(OC[C@@H](O)COc3ccc(F)cc3)c2N1	12	-1.06
Nc1c2c(nn1-c1ccccc1)-c1ccccc1CC21CCCC1	-2	0.48
C=CCc1cc(C(=O)N[C@H]2CCN(C)C2)ccc1OC	2	-0.33
